Assay results taken from article PMC9681820, “A PDE10A inhibitor CPL500036 is a novel agent modulating striatal function devoid of most neuroleptic side-effects” (Frontiers in Pharmacology, 2022).

Tested on: Salmonella typhimurium (TA98, TA100, TA1535, and TA1537) and Escherichia coli (WP2 uvrA)
Assay: Ames test, all strains (overall result)
Settings: 0.025 mg/ml–25 mg/ml, in the presence and absence of metabolizing enzymes

`Cc1ncc(C)n2nc(-c3ccn4cc(-c5ccccc5)nc4n3)nc12` [CPL500036, 7-[5,8-Dimethyl-(1,2,4)triazolo (1,5-a)pyrazin-2-yl]-2-phenylimidazo (1,2-a) pyrimidine] was tested, and the mutagenic activity was “No mutagenic activity”.
